Screen size: about 410,000 compounds; about 6,400 (1.6%) were called active. The shares of active, inactive and inconclusive entries below differ from those in the screen. Calls come from the whole dose curve; as a rule, active = well fitted inhibition curve with a large enough effect; inconclusive = small, poorly fitted or top-dose-only effect; inactive = no such curve, though single readings can be large or run the other way. Where the call is inconclusive, the potency comes from a doubtful curve fit.
target: Glucagon-like peptide 1 receptor (Homo sapiens) (UniProt P43220); test: qHTS of GLP-1 Receptor Inverse Agonists (Inhibition Mode); details: HEK293 GLP-1R CRE-luciferase, luminescence, 24 h, GLP-1R form is constitutively active; activity change, negative = inhibition: at 38.3 µM (top of the series) unless noted; note: nearly all actives have a fitted effect of over 55% in size
Summary of the method: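 Luminescence readout: a drop in cAMP-driven luciferase signal flags inverse agonism at a constitutively active GLP-1R stably expressed in HEK293. Compound exposure lasted 24 hr at 37 deg C, 5% CO2.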
% is set by controls: 0 for no effect and ±100 for the full control effect; potency is the fitted concentration of half-maximal effect; tags give direction and shape of the fitted curve.

Chain of UniProt P43220 (P43220 whole entry, looked up): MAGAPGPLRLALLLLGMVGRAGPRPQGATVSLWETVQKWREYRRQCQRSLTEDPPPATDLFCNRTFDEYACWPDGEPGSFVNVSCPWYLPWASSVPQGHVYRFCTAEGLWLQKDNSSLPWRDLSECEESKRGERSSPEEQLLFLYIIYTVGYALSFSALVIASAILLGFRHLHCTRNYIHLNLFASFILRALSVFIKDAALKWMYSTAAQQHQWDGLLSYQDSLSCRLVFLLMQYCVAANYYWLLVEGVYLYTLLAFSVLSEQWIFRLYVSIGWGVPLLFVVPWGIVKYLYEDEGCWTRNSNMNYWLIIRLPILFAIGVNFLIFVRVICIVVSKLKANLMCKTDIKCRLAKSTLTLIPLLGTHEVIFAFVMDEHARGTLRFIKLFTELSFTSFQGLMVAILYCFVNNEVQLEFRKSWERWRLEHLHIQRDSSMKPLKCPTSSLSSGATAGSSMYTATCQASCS

Potency, inconclusive:
O=C(NCC(F)(F)F)c1cc2c(c(-c3cccc(-c4ccccc4F)c3)n1)[C@H](CCO)N(C(=O)CC1CC1)C2 7.08 µM [inhibitor, partial curve]
COc1ccc(/C=C\C(=O)CC(O)(c2ccccc2)C(F)(F)F)cc1 (centres undefined) 11.2 µM [inhibitor, partial curve]
O=C(NCCS(=O)(=O)NCc1ccc(Cl)cc1)c1ccccc1 14.1 µM [inhibitor, single point]
CC(=O)Nc1ccc(CN2CCCC(C(=O)c3ccc(C(F)(F)F)cc3)C2)cc1 (centres undefined) 10 µM [inhibitor, single point]
CC1CCCC(NC(=O)CN2C(=O)NC(c3ccccc3)(c3ccccc3)C2=O)C1C (centres undefined) 10 µM [inhibitor, partial curve, poor fit]
O=C(CN1CCN(Cc2cccc(Cl)c2)C1=O)NCc1ccc(F)cc1 28.2 µM [inhibitor, single point]
CCC/C=C/c1ccc(CN2C(CC(C)C)C(=O)N(Cc3cn(CCC4OCCCO4)nn3)CCS2(=O)=O)cc1 (centres undefined) 25.1 µM [inhibitor, single point]
Cc1ccc(N2C(=O)CSC2c2cccs2)cc1 (centres undefined) 17.8 µM [inhibitor, partial curve, poor fit]
Cc1nc2c(-c3ccc(F)cc3)c(C)nn2c(C)c1CCC(=O)Nc1ccccc1F 3.55 µM [inhibitor, full curve, poor fit]
COc1ccc2[nH]cc(CCNC(=O)Cc3ccc(Br)cc3)c2c1 10 µM [inhibitor, partial curve, poor fit]
CC(C)Cc1nn2c(N)c(/C=C3\C=Nc4ccccc43)c(=O)nc2s1 28.2 µM [inhibitor, single point]
COc1ccccc1C(=O)NCCn1cc(SCc2ccc(C)cc2)c2ccccc21 7.94 µM [inhibitor, partial curve, poor fit]
COc1ccc(OC)c2sc(N3CCN(C(=O)c4ccc5c(c4)CCCC5)CC3)nc12 28.2 µM [inhibitor, single point]
Cc1ccc(C(O)c2ncc(-c3ccc4ccccc4c3)[nH]2)cc1F (centres undefined) 11.2 µM [inhibitor, partial curve, poor fit]
O=C1[C@H]2[C@@H](c3ccc(F)cc3)N3C(=O)N(c4cccc(F)c4)C(=O)[C@@]3(Cc3ccccc3)[C@H]2C(=O)N1C1CCCCC1 10 µM [inhibitor, partial curve, poor fit]
CCN1CCCC1CNC(=O)C1CCN(Cc2nc(-c3cccc(Br)c3)oc2C)CC1 (centres undefined) 2.51 µM [inhibitor, full curve, poor fit]
COc1ccc(C2CC(c3ccccc3)=NN2c2ccc(S(N)(=O)=O)cc2)cc1 (centres undefined) 28.2 µM [inhibitor, single point]
CCN(C(=O)C(C)OC(=O)c1nn(-c2ccccc2C(F)(F)F)cc1O)c1ccccc1 (centres undefined) 31.6 µM [inhibitor, single point]
Cc1ccsc1/C=N/NC(=O)c1ccc2c(c1)OCCO2 11.2 µM [inhibitor, partial curve, poor fit]
C=CCN(c1ccccc1)S(=O)(=O)c1cccc(C(=O)NCc2ccco2)c1 10 µM [inhibitor, partial curve, poor fit]
O=C(Nc1ccccc1)c1cc(C2CCCCN2C(=O)c2ccccc2)on1 (centres undefined) 31.6 µM [inhibitor, single point]
CC(C)N1C(=O)/C(=C\c2nc3ccccc3c(=O)n2-c2ccccc2)c2ccccc21 7.08 µM [inhibitor, partial curve, poor fit]
COc1ccc(C(=O)c2sc(Nc3ccccc3)c(C(=O)Nc3ccc(OC)c(OC)c3)c2N)cc1 15.8 µM [inhibitor, partial curve, poor fit]
CC1=C(c2ccc(C)cc2)S(=O)(=O)NC1=NCCCN1CCN(c2ccccc2F)CC1 14.1 µM [inhibitor, partial curve, poor fit]
CC(=O)N(C)c1ccc(NC(=S)Nc2ccc(C(C)C)cc2)cc1 28.2 µM [inhibitor, single point]
CCOc1cc(CNc2cccc3ccccc23)cc(Br)c1OCC(=O)NC(C)(C)C 10 µM [inhibitor, partial curve, poor fit]
CN(C(=O)COc1ccc(Br)cc1Cl)C1CCCCC1 8.91 µM [inhibitor, partial curve, poor fit]
Cc1cc(C(=O)Nc2ccc(C)c(C)c2)n(-c2ccccc2)n1 28.2 µM [inhibitor, single point]
O=C(OCC(=O)N1N=C(c2ccc(Cl)cc2)CC1c1ccco1)c1ccco1 (centres undefined) 28.2 µM [inhibitor, single point]
COc1cc(C(=S)N2CCCCC2)ccc1OCC(=O)Nc1ccc(F)cc1 28.2 µM [inhibitor, single point]
O=C(Nc1cccc(Cl)c1)c1ccc(F)c(S(=O)(=O)NCc2ccc3c(c2)OCO3)c1 28.2 µM [inhibitor, single point]
Cn1c(CCNC(=O)c2ccco2)nc2cc(NS(=O)(=O)c3ccc(Cl)cc3)ccc21 28.2 µM [inhibitor, single point]
Cc1cc(OCC(O)CN(CCO)CCO)ccc1Cl (centres undefined) 28.2 µM [inhibitor, single point]
CCCOc1ccc(C(=O)NNC(=S)NC(=O)c2ccccc2)cc1 8.91 µM [inhibitor, partial curve, poor fit]
CCC(C)NS(=O)(=O)c1ccc(S(=O)(=O)N2CC=C(c3ccc(F)cc3)CC2)cc1 (centres undefined) 28.2 µM [inhibitor, single point]
Cc1ccc(-c2cc(C(=O)N3CCCCC3)c3ccccc3n2)cc1C 11.2 µM [inhibitor, partial curve, poor fit]
Cc1ccc(S(=O)(=O)Nc2nc(C)cc(NN)n2)cc1 28.2 µM [inhibitor, single point]
C=CCOc1cccc(C(=O)NC(c2ccccc2)C(C)C)c1 (centres undefined) 28.2 µM [inhibitor, single point]
CC(C)=CCc1c2c(c3occ(-c4ccc(O)cc4)c(=O)c3c1O)C=CC(C)(C)O2 28.2 µM [inhibitor, single point]
O=C(Nc1ccc2c(c1)OCCO2)C(c1ccc(F)cc1)N1CCCCC1 (centres undefined) 12.6 µM [inhibitor, single point]
c1ccc(NCc2nc(-c3ccccc3)no2)cc1 28.2 µM [inhibitor, single point]
CCC1CCC(N2CCN(c3ccc(F)cc3)CC2)CC1 (centres undefined) 0.562 µM [inhibitor, full curve, poor fit]
Cc1ccc(N2CCN(S(=O)(=O)c3cc(C(=O)Nc4cc(Cl)cc(Cl)c4)ccc3F)CC2C)cc1 (centres undefined) 8.91 µM [inhibitor, partial curve, poor fit]
CCc1nc2ccc(C(=O)NC3CCN(Cc4ccccc4)CC3)cn2c1N(CC)Cc1cccc(Br)c1 11.2 µM [inhibitor, partial curve, poor fit]
CC1CCCC(C)N1C(=C(Cl)Cl)C(=C1SCCS1)[N+](=O)[O-] (centres undefined) 20 µM [inhibitor, single point]
COC(=O)c1scc(-c2ccc(C)cc2)c1S(=O)(=O)Nc1ccc(F)cc1F 12.6 µM [inhibitor, single point]
CN(CCCNC(=O)CCC(=O)N1CCOc2ccc(Cl)cc21)Cc1ccccc1 8.91 µM [inhibitor, partial curve, poor fit]
S=C(NC1CCCC1)N1CCN(c2ccc(Cl)cc2)CC1 28.2 µM [inhibitor, single point]
Cc1cc(C(=O)Cn2nc(C(=O)O)c3ccccc3c2=O)c(C)n1CCc1ccc(F)cc1 22.4 µM [inhibitor, single point]
S=C(Nc1ccccc1)Nc1ccc(OCc2ccc(Cl)cc2Cl)cc1 28.2 µM [inhibitor, single point]

Activity change, negative = inhibition, inactive:
COc1ccc2[nH]c3c(c2c1)CCN1C(=O)C(CC(=O)NCCCn2ccnc2)C[C@H](C(=O)N(C(C)C)C(C)C)[C@@]31C (some centres undefined) -0.967%
Cc1ccc(C(=O)Nc2cc3c(cc2N2CCCCC2)n(C)c(=O)n3C)cc1 6.28%
O=C(O)c1ccc(Nc2nc3ccccc3n3cnnc23)cc1 -12.7%
COc1ccc(-n2nc(C(=O)Nc3cc(OC)c(OC)c(OC)c3)c(=O)n(C)c2=O)cc1 12.8%
Cc1ccc(CNC(=O)c2cccc3c2C(=O)c2ccc(N4CCCCC4)cc2S3(=O)=O)cc1 3.83%
Cc1cc(Cl)c(S(=O)(=O)N2CCCCCC2)cc1OCC(=O)NC1CCCCC1 0%
CCOC(=O)CC1=NN(c2ccccc2)C(=O)C1 1.38% [at 7.66 µM]
N#Cc1ccc(NC(=S)Nc2ccccc2)cc1 1.32%
CN(C)S(=O)(=O)c1ccc2c(c1)N(CC(=O)NCc1ccc(F)cc1)C(=O)CS2 -7.41%

From PubChem BioAssay AID624417 (National Center for Advancing Translational Sciences (NCATS), 2012)
